Measurements from PubChem BioAssay AID652104 (National Center for Advancing Translational Sciences (NCATS), 2013).
Out of some 410,000 compounds screened, about 7,200 (1.8%) were called active. The inconclusive results got no clear call from the source; some entries with a clear call stand among them for comparison. Calls follow the shape of the dose curve; as a rule, active = well fitted activation curve with a large enough effect; inconclusive = small, poorly fitted or top-dose-only effect, or another doubt; inactive = no such curve, though single readings can be large or run the other way. No potency is given beside an inconclusive call; the fits are too rough.

Assay: qHTS of TDP-43 Inhibitors; also: nearly all actives have a fitted effect of over 50% in size; as to growth rescue (activation): % of control where 0% means no effect
Conditions: TDP-43 expressing yeast growth rescue, BacTiter-Glo, 24 h; growth rescue (activation): at 46.1 µM (top of the series) unless noted
Method in brief: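 Galactose-induced TDP-43 yeast, OD600=0.02, compound pinned; 24 hr, 30 deg C; BacTiter-Glo luminescence for growth. Inhibitors of TDP-43 toxicity read as activators.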
Potency is read from the fitted curve at half-maximal effect; tags tell the direction and shape of the fitted curve.

| Structure (SMILES) | Potency | growth rescue (activation) |
| --- | --- | --- |
| COc1ccc(Cl)cc1NC(=O)CN(C)C(C)C(=O)NC(=O)NC1CCCCC1 (centres undefined) | inconclusive [activator, partial curve, poor fit] | – |
| COc1ccc(OCC(=O)NNC(=S)NC(=O)C2CC2)cc1 | inconclusive [activator, single point] | – |
| O=c1c(C(c2ccc(Cl)cc2)c2c(O)nc3n(c2=O)CCCS3)c(O)nc2n1CCCS2 | – | inactive: -23.9% |
| CN(C)S(=O)(=O)Oc1ccsc1C(=O)Nc1ccc(Br)cc1 | active: 12.6 µM | – |
| COc1cc(OC)cc(-c2cc3ncccc3cn2)c1 | inconclusive [activator, partial curve] | – |
| CCN(CC)c1ccc(C2Nc3ccccc3-c3cc(C)nn32)cc1 (centres undefined) | inconclusive [activator, single point] | – |
| CCOc1ccccc1NC(=O)Cn1c(-c2ccc(Cl)cc2)noc1=O | inconclusive [activator, single point] | – |
| COc1cc(C(F)(F)F)nc2c(Br)c(C(C)(C)C)nn12 | inconclusive [activator, partial curve] | – |
| Cc1ccc(C(=O)N2CCN(c3cccc(C)c3C)CC2)cc1S(=O)(=O)N1CCOCC1 | inconclusive [activator, partial curve] | – |
| COc1ccc(C2/C=C\CN(C(=O)CC(C)C)CC(=O)N2Cc2ccc(F)cc2)cc1 (centres undefined) | inconclusive [activator, partial curve] | – |
| c1ccc2c(c1)-c1cccc3cncc-2c13 | inconclusive [activator, single point] | – |
| COc1ccc(OC)c(NC(=O)c2ccc3c(Cl)c4c(nc3c2)CCCC4)c1 | inconclusive [activator, full curve, poor fit] | – |
| O=C(CCn1c(=O)oc2ccccc21)Nc1nc2ccccc2s1 | active: 28.2 µM | – |
| O=C(O)c1nn(CCOc2ccc(Br)cc2)c(=O)c2ccccc12 | active: 12.6 µM | – |
| O=C(Nc1nc(-c2ccc3c(c2)OCCO3)cs1)C1CCCC1 | active: 11.2 µM | – |
| CCCCN(C)C(=O)c1ccc2c(c1)N(Cc1cccc(F)c1)C(=O)c1ccccc1S2 | active: 22.4 µM | – |
| O=C(NC(c1ccc(Cl)cc1)c1ccsc1)C1CCN(Cc2ccc(Oc3ccccc3)cc2)CC1 (centres undefined) | inconclusive [activator, single point] | – |
| C=CC(=O)Oc1ccc(N2Cc3ccccc3C2=O)cc1 | – | inconclusive: -91.2% [activator] |
| COc1ccc(Cc2c(-c3ccccc3)nc3c(C)cc(Br)cn23)c(C)c1 | inconclusive [activator, single point] | – |
